Sequences with one replicate were seen in a single cluster, so their values are uncertain.
system: ATP; assay: switch fluorescence ratio, 500 uM ATP over buffer (Cy3 cluster intensity, sum of 5 cycles each) (fold (ratio)); higher = stronger signal-on switching upon ATP binding; sequences stand for … in TCGTCGGCAGCGTCAGATGTGTATAAGAGACAGTTTTTTTTTTTTTTTTTTTTTTTTT…TC; details: aptamer strand: ATP DNA aptamer (quencher-CACCTGGGGGAGTATTGCGGAGGAAGG + anchor), 100 nM annealed; ATP concentration: 500 uM; one replicate
Outline: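 Between each of five buffer/ATP cycles, the flow-cell was stripped with NaOH and re-annealed. Each cycle imaged Cy3-labelled switching-strand clusters, annealed to 100 nM quencher-labelled ATP aptamer on a modified Illumina MiSeq flow-cell, first in selection buffer and then after 15 min with 500 uM ATP at 22 °C. The fluorescence ratio is summed target-cycle over summed buffer-cycle Cy3 intensity per cluster, averaged per switch-domain sequence, with clusters outside 100-1000 RFU excluded.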
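Also: ATP exposure 15 min at 22 °C before imaging.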

Sequence	switch fluorescence ratio
CACGAGGGTG	1.15
CACGATCTGA	1.01
CACGATTTGT	1
CACGCACTTA	1.53
CACGCCAGCT	1.08
CACGCCATGT	1.1
CACGCGTGAA	1.01
CACGCTCTAC	3.28
CACGGATCCC	0.986
CACGGCCGAG	1
CACGGCCTTT	1.06
CACGGCGAAC	1.56
CACGGGATAA	1.05
CACGGGTAAC	1.04
CACGGGTGAC	1.14
CACGGTCGGA	0.94
CACGTAACCA	1.32
CACGTAGCGC	1.36
CACGTCACA	1.66
CACGTCGCAA	1.24
CACGTCTACT	1.14
CACGTCTATT	1.05
CACGTCTGCG	0.958
CACGTGGGCT	1.1
CACTAGCCA	1.04
CACTATTACC	1.16

Sequence	switch fluorescence ratio
CACTCAAACT	1.12
CACTCAAGGT	1.05
CACTCCAGGA	1.07
CACTCCGGGA	2.61
CACTCGACTT	1.02
CACTCGATTG	1
CACTCGCTTT	1.07
CACTCGTTCC	1.29
CACTCTACCA	1.34
CACTCTAGAT	1.04
CACTCTTAAA	1.12
CACTGAAGCT	0.97
CACTGAGC	0.992
CACTGATGAT	1.01
CACTGGATTT	1.01
CACTGGCCCG	1.05
CACTGGGGCT	0.978
CACTGTGTGT	0.99
CACTGTTTAC	1.13
CACTTATCGA	1.06
CACTTATCTA	1.01
CACTTCCCGG	1.28
CACTTCTA	0.997
CACTTGCAGT	1.04
CAGAAAAGGT	1.09
CAGAAAGCGA	1.18

Sequence	switch fluorescence ratio
CAGAAAGGCG	1.04
CAGAAATTCA	0.969
CAGAAGGTGG	1
CAGAAGTCTT	1.01
CAGAATTTCA	0.983
CAGACAGGCT	0.964
CAGACCACAG	1.09
CAGACGACTT	1.09
CAGACGTCTG	1.01
CAGACGTCTT	1.04
CAGACGTGGT	1.05
CAGACTTCTG	0.967
CAGAGATGGT	1
CAGAGCACCC	1.06
CAGAGCTGCG	1.03
CAGAGGGAA	1.02
CAGAGGGTTC	1.02
CAGAGGTGAG	1.06
CAGAGTGC	1.05
CAGAGTTACG	1.01
CAGAGTTACT	1.04
CAGATAAAAC	0.979
CAGATAGTTA	1.01
CAGATATCAC	1.02
CAGATCAGAT	0.964
CAGATCTCCC	1.12

Sequence	switch fluorescence ratio
CAGATGAACT	0.984
CAGATGATCT	1.01
CAGATGTGCT	0.996
CAGATTACTT	1.21
CAGATTGGAG	0.991
CAGATTGGTT	0.989
CAGCAAAGAG	1.28
CAGCAAGTCG	1.21
CAGCAATAAA	3.79
CAGCACGTCC	1.04
CAGCACTCTC	1.56
CAGCAGCAAT	3.08
CAGCATTTG	1.02
CAGCCATGAA	1.03
CAGCGAATCA	0.968
CAGCGAGACA	1.27
CAGCGCTG	1
CAGCGGAGTT	0.997
CAGCGGTTTC	1.06
CAGCGTTGA	0.988
CAGCTAGAAA	0.975
CAGCTAGTAA	0.997
CAGCTGGTCC	1.02
CAGCTTTTCT	1
CAGGAACATG	0.963
CAGGAATTTT	1.03

Sequence	switch fluorescence ratio
CAGGAGATAG	1.06
CAGGAGGTTC	0.995
CAGGATATGA	0.982
CAGGATTCAG	1.02
CAGGCAGTGT	0.985
CAGGCCAGGG	1.03
CAGGCCGAGG	0.983
CAGGCCTCTA	1.01
CAGGCGTACA	1.05
CAGGCGTCAT	1.04
CAGGCGTCT	1.06
CAGGCGTGTT	1.03
CAGGCTACTT	1
CAGGCTGTGG	1.02
CAGGGAGTGT	1.03
CAGGGATTAT	1
CAGGGCACGG	0.984
CAGGGCCACG	0.977
CAGGGGACTA	1.02
CAGGGGAGGC	1.05
CAGGGGCATA	1.09
CAGGGGGCTC	0.989
CAGGGTTCGC	0.999
CAGGTCCCGT	0.98
CAGGTGTCGG	1.04
CAGGTGTTTT	1.48

Sequence	switch fluorescence ratio
CAGGTTCGAG	1
CAGGTTTTGC	1.01
CAGTAACAG	1.01
CAGTAAGGGG	0.983
CAGTACCACG	1.07
CAGTAGCATG	1.59
CAGTAGCGCT	0.995
CAGTAGTAA	1.64
CAGTAGTGCG	0.955
CAGTATACTC	1.38
CAGTATATAA	0.996
CAGTATCAGT	0.995
CAGTATGGG	0.985
CAGTCCAAGG	1.04
CAGTCCACC	1.02
CAGTCCAGAC	1.02
CAGTCCCTCG	1.01
CAGTCCGAAA	1.69
CAGTCCTCGG	1.07
CAGTCGCATG	1.1
CAGTCGGGG	1
CAGTCGTAGA	0.996
CAGTCTAGGT	0.983
CAGTCTCTTG	0.972
CAGTGCTTGT	0.975
CAGTGGGCCG	0.927

Sequence	switch fluorescence ratio
CAGTGGGTAT	1.01
CAGTGGTACA	1.03
CAGTGGTGCC	0.98
CAGTGGTTTT	0.996
CAGTGTACCC	1.18
CAGTGTCATG	0.991
CAGTGTGTAA	1.08
CAGTGTTTGG	0.936
CAGTGTTTTC	0.975
CAGTTACCTG	0.999
CAGTTATTTC	0.994
CAGTTCCAGC	1.01
CAGTTGGCCT	1.01
CAGTTGTTCT	1.05
CAGTTTAACG	0.911
CAGTTTATTG	0.975
CAGTTTCAAT	1.03
CATAAAAACG	1.38
CATAAACGAG	0.975
CATAAATTTC	0.98
CATAAATTTT	1.02
CATAACCCCA	1.09
CATAAGCACT	1.3
CATAAGTTAA	1.01
CATAATATC	1.06
CATACAGTG	1.03

Sequence	switch fluorescence ratio
CATACGCTTA	3.12
CATACGTATG	1.03
CATAGATTGC	1.02
CATAGCCTTA	0.948
CATAGCGAA	1.11
CATAGCGACA	1.05
CATAGCTTTA	1.05
CATAGGATAG	1.05
CATAGGTATT	0.986
CATAGGTCCA	0.983
CATAGGTCCG	0.984
CATAGTTATT	1
CATAGTTCCA	0.964
CATAGTTGAA	0.986
CATATCACTT	1.02
CATATCGAGC	0.93
CATATCGAGG	0.992
CATATCGCGA	1.06
CATATCTAGT	0.978
